{"source": "PubChem BioAssay AID2546", "about": "(National Center for Advancing Translational Sciences (NCATS), 2010)", "note": "The whole screen tested about 310,000 compounds, of which about 11,000 (3.5%) were called active. This list was built around the results that the source calls inconclusive (neither active nor inactive); the mix of calls is not that of the screen. Calls come from the whole dose curve; as a rule, active = well fitted inhibition curve with a large enough effect; inconclusive = small, poorly fitted or top-dose-only effect, or effect the other way; inactive = flat fitted curve, though single readings scatter. No potency is given beside an inconclusive call; the fits are too rough. Potency is the fitted concentration of half-maximal effect; tags give direction and shape of the fitted curve.", "data": [{"test": "VP16 counterscreen qHTS for inhibitors of ROR gamma transcriptional activity;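 note: Gal4-VP16 expression switched on by copper sulfate through the metallothionein promoter; nearly all actives have a fitted effect of over 50% in size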", "settings": "Drosophila S2 Gal4-VP16 UAS-luciferase, luminescence, 20 h; series mostly up to 53.6 µM", "values": [{"smiles": "Cc1nnc(SCCn2c(N3CC(C)CC(C)C3)nc3c2c(=O)n(C)c(=O)n3C)s1", "note": "(stereo not given)", "Potency": "inconclusive [activator, single point]"}, {"smiles": "Cc1cc(Cl)ccc1OCCCC(=O)Nc1cccnc1", "Potency": "inconclusive [inhibitor, single point]"}, {"smiles": "CC(Sc1nncs1)C(=O)Nc1ccc(Cl)cn1", "note": "(stereo not given)", "Potency": "inactive"}, {"smiles": "Cn1cnc([N+](=O)[O-])c1Nc1ccc(O)cc1", "Potency": "inactive"}, {"smiles": "COc1ccc(Oc2coc3cc(OC(=O)/C=C/c4ccc(F)cc4)ccc3c2=O)cc1", "Potency": "inconclusive [inhibitor, single point]"}, {"smiles": "CCOc1nc(Nc2ccc(OC)cc2)nc(OCC)n1", "Potency": "inconclusive [inhibitor, single point]"}, {"smiles": "CC(C)(C)C(=O)Nc1ccc(C(=O)NCc2cccnc2)cc1", "Potency": "inactive"}, {"smiles": "CCOC(=O)Cc1csc(NC(=S)NC(=O)CC(C)C)n1", "Potency": "inconclusive [inhibitor, single point]"}, {"smiles": "CCOc1ccc(S(=O)(=O)N2c3ccccc3CC2C)cc1", "note": "(stereo not given)", "Potency": "inconclusive [inhibitor, single point]"}, {"smiles": "CCc1ccc(OCC(=O)Nc2nnc(C3CCCC3)s2)cc1", "Potency": "inactive"}, {"smiles": "Cc1onc(-c2ccccc2Cl)c1C(=O)Nc1nnc(Cc2ccc(Cl)cc2)s1", "Potency": "inconclusive [inhibitor, single point]"}, {"smiles": "Cc1cccc(NC(=O)c2ccc(C3SCC(=O)N3CCc3ccccc3)cc2)c1", "note": "(stereo not given)", "Potency": "inconclusive [inhibitor, single point]"}, {"smiles": "CCOC(=O)C1=NN(C(=O)c2cccc(Br)c2)C(O)(C(C)(C)C)C1", "note": "(stereo not given)", "Potency": "inconclusive [inhibitor, single point]"}, {"smiles": "O=C(O)c1ccc2c(=O)n3c(nc2c1)/C(=C/c1ccccc1Br)CC3", "Potency": "inactive"}, {"smiles": "COc1ccccc1OCC(=O)NNc1c2ccccc2nc2ccccc12", "Potency": "active: 0.794 µM"}, {"smiles": "Cc1ccc(/C=N/NC(=O)c2nnn(-c3nonc3N)c2CN(C)c2ccccc2)s1", "Potency": "inconclusive [inhibitor, single point]"}, {"smiles": "c1c2c(cc3sc(N4CCOCC4)nc13)OCO2", "Potency": "inconclusive [inhibitor, partial curve]"}, {"smiles": "COc1ccc(NC(C)C(=O)Nc2ccc(C(C)(C)C)cc2)cc1Cl", "note": "(stereo not given)", "Potency": "inconclusive [inhibitor, single point]"}, {"smiles": "CCCC(=O)NC(=S)Nc1cccc(NC(=O)c2ccc(Cl)cc2Cl)c1", "Potency": "inconclusive [inhibitor, partial curve, poor fit]"}, {"smiles": "CCn1c(SCC(=O)Nc2ccc(C(C)=O)cc2)nc2nc3c(cc2c1=O)CCCC3", "Potency": "inconclusive [inhibitor, single point]"}]}]}
